Data on 56 sequences can be found in the supplement of paper PMC11417369.

This is one part of the list.

This assay has as its system PfAP2-HC AP2 domain (GST-tagged). The experiment in a line: gcPBM binding intensity (ln(normalized median fluorescence intensity)); higher = stronger DNA binding. Summed up:
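Using an Agilent 4 × 180k array, primer-extended double-stranded 36-bp intergenic genomic probes and negative controls were exposed for 1 h to GST-fused P. falciparum DNA-binding domains expressed in E. coli. Binding was carried out in 1× PBS with 1% milk, 0.2 mg/ml BSA, 0.5% salmon testes DNA and 0.03% Triton X-100, and protein was detected with Alexa488 anti-GST antibody and a 488 nm scan. Binding intensity is the highest Masliner-normalised natural-log median intensity across replicate spots of either probe orientation.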
In the case of “ATAATGTTTCTTTCAACACACAAAAAATGAACACAT [CACACA_site1552]”, the “gcPBM binding intensity (ln)” value amounted to 9.79. The value for “AAAAAAAAAAAATAGACCTCCTAAGCAAAAGAAAAA [GTGCAC_negctrl_site634]” was 9.81; that for “TATATAAGCGCATGCACACGCAAAGGTATATAAATA [CACACA_site622]” was 10.1. Under “AATATAAATAAAAACACACACAATGGTACAGATATA [CACACA_site5930]” stands 10.3. In the case of “AATTTAAATTAGAATTGTACTAGAAAAGGAATATAT [XGTACX_site6162]”, the “gcPBM binding intensity (ln)” value came to 9.72. As for “AATTATATAATCTTATAACATAATATAATAACATTT [CACACA_negctrl_site187]”, the “gcPBM binding intensity (ln)” value came to 9.45. The value for “ATAATTTTCCATATTTGTACATATTTTTTTCCCTTG [XGTACX_site8146]” was 9.78; that for “TAATGACTGAAAAATTGTACATATGTATATATGTAT [XGTACX_site2415]” was 9.7.

For the sequence “ATTCTATTATAATATTCACACACTAACGTAAATCAT [CACACA_site2750]”, the “gcPBM binding intensity (ln)” value was determined as 9.85.

For the sequence “TATACATACATACATACACACACACCGATATATATA [CACACA_site7896]”, the “gcPBM binding intensity (ln)” value amounted to 10.2. The value for “TATTTATTTGTTTAAGGTACAGAACAAATTTTTATT [XGTACX_site7414]” was 9.5; that for “AAATGTTCTTAAAAATGAATAATATATATATATATA [CACACA_negctrl_site796]” was 9.41.

Take “ATATTTATTATTATATGTACGTAACATCTTTATAAA [XGTACX_site7016]”: the “gcPBM binding intensity (ln)” value was found to be 9.8. Under “CATAAATACATACATACACACATATATATATATATA [CACACA_site2106]” stands 9.85; under “AAATGTTGAAAAATATGTACATATTATATATATTAT [XGTACX_site1165]”, 9.74; under “TAAGAAAGACAAAAAAAATGAAAAGAAAAAAAATGA [CACACA_negctrl_site1469]”, 9.49. Under “ATTTAGAAAAAATATACACACAGCCTAAACATGCAT [CACACA_site4067]” stands 10.1.

For “AATATAAGCAAATACACACACACATATATATATATA [CACACA_site3805]”, the “gcPBM binding intensity (ln)” value came out at 10.7. Under “TTATCCTATACAAGGGAAAAATAAAATAAAATAAAT [TGCATGCA_negctrl_site272]” stands 9.46; under “TAAAAAATATTATATACACACAGTATAAAAAAAAAT [CACACA_site4012]”, 10; under ATTGATTATTTTCTAGTGCATAAAATAATTTTTTTT, 9.46. The value for “AGTGTCATATAAAATTGTACTTTTTTTTTTTTCTTT [XGTACX_site5651]” was 9.7. The value for “ATATACATATTATAATGTACATATTTTAATAACCTT [XGTACX_site7617]” was 9.67. “CAGACCTCTTTGTCATGTACATAAAAAAATAAAGAA [XGTACX_site7887]”: the “gcPBM binding intensity (ln)” value came to 9.47.

Regarding “TATTTCTTTTGGTTGGTGCATAAAATAATACAATAT [GTGCAC_site9916]”, the “gcPBM binding intensity (ln)” value was determined as 9.64. The value for “TATAAACAGACGAAAACACACATATGTAAATATATA [CACACA_site4428]” was 9.89.

Consider “TACAAAAAGTTATACACACACGTACCTATAAATAGA [CACACA_site6571]”, for which the “gcPBM binding intensity (ln)” value stood at 10. The value for “ATAAAAATAATATCATGTACATATGTGTATTGTATT [XGTACX_site1768]” was 9.73; that for “TATAAGAAAATAATGTGTACTAAATAATAAATGCAT [XGTACX_site1204]” was 9.76; that for “CCACATGAGATGATTACACACATATAAATATTTACA [CACACA_site6222]” was 9.69.

Regarding “ATATATATTTAATTTACACACAAAAAAAATTGTTGG [CACACA_site961]”, the “gcPBM binding intensity (ln)” value amounted to 9.64.

Consider “ACTTTTTAATAATAATAATTATATATATATATATAT [TGCATGCA_negctrl_site459]”, for which the “gcPBM binding intensity (ln)” value worked out at 9.66.

As to “ATAACATACATAACAACACACAATATTTATATGTAT [CACACA_site210]”, the “gcPBM binding intensity (ln)” value was 10.2. Under “GAATGTATTCATAAATGTACTTATAATATTATAATA [XGTACX_site3466]” stands 9.47; under “ATAAATGAAGATAAATTAAAAAAAAAAAAAAAAAAA [CACACA_negctrl_site992]”, 8.7. The value for “AATACATAAATATTTTGTACATATTATATAAAATAT [XGTACX_site1627]” was 9.65; that for “CGACTTTTAAAATATACACACATATATATATATATA [CACACA_site825]” was 9.74; that for “ATGAAAAAAAAAAAAAAAAAAAAAAAAAAAAAAAAA [CACACA_negctrl_site1405]” was 8.84. Under “CTTGTACCTAGAAATACACACAATTATATAACTTAT [CACACA_site2838]” stands 9.76; under “ATTTGCTTTTATTTTACACACTTGCTCCTGTTGTAC [CACACA_site1088]”, 10.6; under “AAAAAAAAATATATTGCACACCTCTCAATAAAAAAA [CACACA_site172]”, 9.8.

Consider “TCCATTCTATTTTTTACACACGTATGTAAATATTAT [CACACA_site2686]”, for which the “gcPBM binding intensity (ln)” value came to 9.86. Under “CGCAACACTATTTGGGTGCTCTTCAAAAAAAAAAAA [GTGCAC_site9598]” stands 9.01; under “TTAAATACTTTTCGAAGTACATTATATATATAATAT [XGTACX_site7530]”, 9.43; under “AGAATATATATAATAGTGCAATGTACAATGAACAAA [GTGCAC_site9577]”, 9.86. The value for “ATTCTAATTACATATACACACAAAGGTTCATAACAA [CACACA_site3076]” was 9.67; that for “TATATAAATGTATACACACACATATAAATATAAATA [CACACA_site6751]” was 10; that for “TAACTACTAGAAAAAACACACAAAAAGTAAATATAT [CACACA_site2740]” was 9.87. Under “TTCCCATGTAATATTAAACACACACCCATATAACAC [CACACA_site7905]” stands 10.5. Consider “TAAAATATAAGACACACACACATATATTTATATATC [CACACA_site6248]”, for which the “gcPBM binding intensity (ln)” value was 10.5. Under “TACCAAATCACCCCTTGTACCCATTTTAAAATTTTC [XGTACX_site396]” stands 9.86; under “TGTTTAACATTTATATGTACATATATTCACATATTA [XGTACX_site342]”, 9.81; under “ATAAACAGATCATATACATGCATATATGTAGAATAA [TGCATGCA_site157]”, 9.82. Consider “ATATAAAAAAGAGGGAGTACTTGTAACAAAATAATA [XGTACX_site8679]”, for which the “gcPBM binding intensity (ln)” value is 9.83. With “GTACAGATGTAGTATGCATGTAATTATATATAAATT [TGCATGCA_site292]”, the “gcPBM binding intensity (ln)” value was determined as 9.76. The value for “ACGTAGTAGGTATTATGTACATATTTATAAGTATAA [XGTACX_site7336]” was 9.72.
